# Test results from patent US20210047304A1, “Bromodomain Inhibitors” (AbbVie Inc., priority 2016, published 2021).
# Biological target: BRD4 (BDII_E352-M457) (Homo sapiens, UniProt O60885)
# Assay: TR-FRET bromodomain binding assay, BRD4 BDII
# Protocol: A time-resolved fluorescence resonance energy transfer (TR-FRET) assay was used to determine the affinities of compounds of the Examples listed in Table 1 for each bromodomain of BRD4. […] An Alexa647-labeled BET-inhibitor was used as the fluorescent probe in the assay.
# (§1) Compound dilution series were prepared in DMSO via an approximately 3-fold serial dilution. Compound dilutions were added directly into white, low-volume assay plates (Perkin Elmer Proxiplate 384 Plus #6008280) using a Labcyte Echo in conjunction with Labcyte Access and Thermo Multidrop CombinL robotics. Compounds were then suspended in eight microliters (μL) of assay buffer (20 mM Sodium Phosphate, pH 6.0, 50 mM NaCl, 1 mM Ethylenediaminetetraacetic acid disodium salt dihydrate, 0.01% Triton X-100, 1 mM DL-Dithiothreitol) containing His-tagged bromodomain, Europium-conjugated anti-His antibody (Invitrogen PV5596) and Alexa-647-conjugated probe.
# After a one-hour equilibration at room temperature, TR-FRET ratios were determined using an Envision multilabel plate reader (Ex 340, Em 495/520).
# TR-FRET data were normalized to the means of 24 no-compound controls (“high”) and 8 controls containing 1 μM un-labeled probe (“low”). Percent inhibition was plotted as a function of compound concentration and the data were fit with the 4 parameter logistic equation to obtain IC50s. Inhibition constants (Ki) were calculated from the IC50s, probe Kd and probe concentration.
# Compound dilution series for Compounds A-E were prepared in DMSO via an approximately 3-fold serial dilution from 0.47 mM to 7.8 nM.
# as §1, with “Compound” for “Compound dilution series were prepared in DMSO via an approximately 3-fold serial dilution. Compound”
# The final concentration of 1× assay mixture contained 2% DMSO, 8 nM His-tagged bromodomain, 1 nM Europium-conjugated anti-His-tag antibody and 100 nM or 30 nM probe (for BDI or BDII, respectively) and compound concentration in the range of 9.19 μM-150 pM.
# TR-FRET data were normalized to the means of 24 no-compound controls (“high”) and 8 controls containing 1 μM un-labeled probe (“low”). Percent inhibition was plotted as a function of compound concentration and the data were fit with the 4 parameter logistic equation to obtain IC50s. Inhibition constants (Ki) were calculated from the IC50s, probe Kd and probe concentration. Typical Z′ values were between 0.65 and 0.75. The minimum significant ratio was determined to evaluate assay reproducibility (Eastwood et al., (2006) J Biomol Screen, 11: 253-261). The MSR was determined to be 2.03 for BDI and 1.93 for BDII, and a moving MSR (last six run MSR overtime) for both BDI and BDII was typically <3.
row,Compound,Ki
1,"Cc1cc(F)cc(C)c1Oc1ccc(C(C)(C)O)cc1-c1cn(C)c(=O)cc1O[C@H]1CC[C@H](N2CC(C)(C)CC2=O)CC1 [Example 120, 4-{[trans-4-(4,4-dimethyl-2-oxopyrrolidin-1-yl)cyclohexyl]oxy}-5-[2-(4-fluoro-2,6-dimethylphenoxy)-5-(2-hydroxypropan-2-yl)phenyl]-1-methylpyridin-2(1H)-one]",38 nM
2,"Cc1cc(F)cc(C)c1Oc1ccc(C(C)(C)O)cc1-c1cn(C)c(=O)cc1O[C@H]1CC[C@H](N2CCCCC2=O)CC1 [Example 29, 5-[2-(4-fluoro-2,6-dimethylphenoxy)-5-(2-hydroxypropan-2-yl)phenyl]-1-methyl-4-{[trans-4-(2-oxopiperidin-1-yl)cyclohexyl]oxy}pyridin-2(1H)-one]",1.52 nM
3,"Cc1cc(F)cc(C)c1Oc1ccc(C(C)(C)O)cc1-c1cn(C)c(=O)cc1NC1CCN(S(C)(=O)=O)CC1 [Example 9, 5-[2-(4-fluoro-2,6-dimethylphenoxy)-5-(2-hydroxypropan-2-yl)phenyl]-4-{[1-(methanesulfonyl)piperidin-4-yl]amino}-1-methylpyridin-2(1H)-one]",12.5 nM
4,"Cc1cccc(C)c1Oc1ccc(C(C)(C)O)cc1-c1cn(C)c(=O)cc1NC1CCN(S(C)(=O)=O)CC1 [Example 2, 5-[2-(2,6-dimethylphenoxy)-5-(2-hydroxypropan-2-yl)phenyl]-4-{[1-(methanesulfonyl)piperidin-4-yl]amino}-1-methylpyridin-2(1H)-one]",6.13 nM
5,"Cc1cc(F)cc(C)c1Oc1ccc(C(C)(C)O)cc1-c1cn(C)c(=O)cc1O[C@H]1CC[C@H](N2C(=O)N[C@@H](C)C2=O)CC1 [Example 124, (5S)-3-[trans-4-({5-[2-(4-fluoro-2,6-dimethylphenoxy)-5-(2-hydroxypropan-2-yl)phenyl]-1-methyl-2-oxo-1,2-dihydropyridin-4-yl}oxy)cyclohexyl]-5-methylimidazolidine-2,4-dione]",2.61 nM
6,"COCC(=O)N1CCC(Oc2cc(=O)n(C)cc2-c2cc(C(C)(C)O)cnc2Oc2c(C)cc(F)cc2C)CC1 [Example 26, 2′-(4-fluoro-2,6-dimethylphenoxy)-5′-(2-hydroxypropan-2-yl)-4-{[1-(methoxyacetyl)piperidin-4-yl]oxy}-1-methyl[3,3′-bipyridin]-6(1H)-one]",300 nM
7,"Cc1cc(F)cc(C)c1Oc1ccc(C(C)(C)O)cc1-c1cn(C)c(=O)cc1O[C@H]1CC[C@H](N2C(=O)CCCC2=O)CC1 [Example 80, 1-[trans-4-({5-[2-(4-fluoro-2,6-dimethylphenoxy)-5-(2-hydroxypropan-2-yl)phenyl]-1-methyl-2-oxo-1,2-dihydropyridin-4-yl}oxy)cyclohexyl]piperidine-2,6-dione]",2.05 nM
8,"CCNC(=O)[C@H]1C[C@@H](Oc2cc(=O)n(C)cc2-c2cc(C(C)(C)O)ccc2Oc2c(C)cc(F)cc2C)C1 [Example 95, cis-N-ethyl-3-({5-[2-(4-fluoro-2,6-dimethylphenoxy)-5-(2-hydroxypropan-2-yl)phenyl]-1-methyl-2-oxo-1,2-dihydropyridin-4-yl}oxy)cyclobutane-1-carboxamide]",19 nM

# Further lines, results first:
row,Ki,Compound
1,2.63 nM,"Cc1cc(F)cc(C)c1Oc1ccc(C(C)(C)O)cc1-c1cn(C)c(=O)cc1O[C@H]1CC[C@H](N2C(=O)CCC2=O)CC1 [Example 44, 1-[trans-4-({5-[2-(4-fluoro-2,6-dimethylphenoxy)-5-(2-hydroxypropan-2-yl)phenyl]-1-methyl-2-oxo-1,2-dihydropyridin-4-yl}oxy)cyclohexyl]pyrrolidine-2,5-dione]"
2,2.33 nM,"Cc1cc(F)cc(C)c1Oc1ccc(C(C)(C)O)cc1-c1cn(C)c(=O)cc1O[C@H]1CC[C@H](NC(=O)C2(C)CC2)CC1 [Example 51, N-[trans-4-({5-[2-(4-fluoro-2,6-dimethylphenoxy)-5-(2-hydroxypropan-2-yl)phenyl]-1-methyl-2-oxo-1,2-dihydropyridin-4-yl}oxy)cyclohexyl]-1-methylcyclopropane-1-carboxamide]"
3,2.38 nM,"Cc1cc(F)cc(C)c1Oc1ccc(C(C)(C)O)cc1-c1cn(C)c(=O)cc1O[C@H]1CC[C@H](N2CCOC2=O)CC1 [Example 38, 5-[2-(4-fluoro-2,6-dimethylphenoxy)-5-(2-hydroxypropan-2-yl)phenyl]-1-methyl-4-{[trans-4-(2-oxo-1,3-oxazolidin-3-yl)cyclohexyl]oxy}pyridin-2(1H)-one]"
4,786 nM,"Cc1cc(F)cc(C)c1Oc1ccc(C(C)(C)O)cc1-c1cn(C)c(=O)cc1O[C@H]1CC[C@@H](C(=O)O)CC1 [Example 75, cis-4-({5-[2-(4-fluoro-2,6-dimethylphenoxy)-5-(2-hydroxypropan-2-yl)phenyl]-1-methyl-2-oxo-1,2-dihydropyridin-4-yl}oxy)cyclohexane-1-carboxylic acid]"
5,6.89 nM,"Cc1cc(F)cc(C)c1Oc1ccc(C(C)(C)O)cc1-c1cn(C)c(=O)cc1O[C@H]1CC[C@H](NC(=O)C2(CNC(=O)OC(C)(C)C)CC2)CC1 [Example 104, tert-butyl [(1-{[trans-4-({5-[2-(4-fluoro-2,6-dimethylphenoxy)-5-(2-hydroxypropan-2-yl)phenyl]-1-methyl-2-oxo-1,2-dihydropyridin-4-yl}oxy)cyclohexyl]carbamoyl}cyclopropyl)methyl]carbamate]"
6,1.68 nM,"C=CC(=O)N[C@H]1CC[C@H](Oc2cc(=O)n(C)cc2-c2cc(C(C)(C)O)ccc2Oc2c(C)cc(F)cc2C)CC1 [Example 28, N-[trans-4-({5-[2-(4-fluoro-2,6-dimethylphenoxy)-5-(2-hydroxypropan-2-yl)phenyl]-1-methyl-2-oxo-1,2-dihydropyridin-4-yl}oxy)cyclohexyl]prop-2-enamide]"
7,8.42 nM,"Cc1cc(F)cc(C)c1Oc1ccc(C(C)(C)O)cc1-c1cn(C)c(=O)cc1O[C@H]1CC[C@H](NC(=O)C(C)(C)N)CC1 [Example 139, N-[trans-4-({5-[2-(4-fluoro-2,6-dimethylphenoxy)-5-(2-hydroxypropan-2-yl)phenyl]-1-methyl-2-oxo-1,2-dihydropyridin-4-yl}oxy)cyclohexyl]-2-methylalaninamide]"
8,1.83 nM,"Cc1cc(F)cc(C)c1Oc1ccc(C(C)(C)O)cc1-c1cn(C)c(=O)cc1O[C@H]1CC[C@H](NC(=O)C(C)(C)C)CC1 [Example 57, N-[trans-4-({5-[2-(4-fluoro-2,6-dimethylphenoxy)-5-(2-hydroxypropan-2-yl)phenyl]-1-methyl-2-oxo-1,2-dihydropyridin-4-yl}oxy)cyclohexyl]-2,2-dimethylpropanamide]"
9,8.53 nM,"Cc1cc(F)cc(C)c1Oc1ccc(C(C)(C)O)cc1-c1cn(C)c(=O)cc1O[C@H]1CC[C@H](NC(=O)C(F)(F)F)CC1 [Example 117, 2,2,2-trifluoro-N-[trans-4-({5-[2-(4-fluoro-2,6-dimethylphenoxy)-5-(2-hydroxypropan-2-yl)phenyl]-1-methyl-2-oxo-1,2-dihydropyridin-4-yl}oxy)cyclohexyl]acetamide]"
10,7.98 nM,"COC(=O)N[C@H]1CC[C@H](Oc2cc(=O)n(C)cc2-c2cc(C(C)(C)O)cnc2Oc2c(C)cc(F)cc2C)CC1 [Example 5, methyl (trans-4-{[2′-(4-fluoro-2,6-dimethylphenoxy)-5′-(2-hydroxypropan-2-yl)-1-methyl-6-oxo[1,6-dihydro[3,3′-bipyridine]]-4-yl]oxy}cyclohexyl)carbamate]"
11,326 nM,"CC(=O)NN[C@H]1CC[C@@H](Oc2cc(=O)n(C)cc2-c2cc(C(C)(C)O)ccc2Oc2c(C)cc(F)cc2C)CC1 [Example 99, N′-[cis-4-({5-[2-(4-fluoro-2,6-dimethylphenoxy)-5-(2-hydroxypropan-2-yl)phenyl]-1-methyl-2-oxo-1,2-dihydropyridin-4-yl}oxy)cyclohexyl]acetohydrazide]"
12,1070 nM,"CC(=O)N[C@H]1CC[C@H](N(C)c2cc(=O)n(C)cc2-c2cc(C(C)(C)O)ccc2Oc2c(C)cc(F)cc2C)CC1 [Example 13, N-{trans-4-[{5-[2-(4-fluoro-2,6-dimethylphenoxy)-5-(2-hydroxypropan-2-yl)phenyl]-1-methyl-2-oxo-1,2-dihydropyridin-4-yl}(methyl)amino]cyclohexyl}acetamide]"
